Assay results: ChEMBL document CHEMBL1157539, “Thousands of chemical starting points for antimalarial lead identification” (Nature, 2010)
The full ranking holds about 13,000 compounds; the median of “IFI” is about 4, and the highest 2% start at about 17. The list shows a part of the results.

Experiment: GSK_TCMDC: Inhibition Frequency Index (IFI). The number of non-kinase HTS assays where a compound showed > 50 % inhibition, expressed as a percentage of the number of such assays in which the compound was tested (-0 is zero)
Assay type: functional
Work on `COc1cc(NC(=O)Nc2ccnc3ccccc23)cc(OC)c1` yielded an IFI of 2.34%.
For `COc1ccc2nccc([C@@H](O)CN3CCC(NCc4cc5ccccc5o4)CC3)c2c1`, the IFI was 3.45%.
`COc1ccc(Br)cc1/C=C/C(=O)Nc1cccc(C2CCCN(C)C2)c1` (stereo not given) showed an IFI of 3.45%.
In the case of `CN(Cc1ccc(C#N)cc1)C1CCN(c2cc(NC(=O)c3ccc(F)cc3)ccn2)CC1`, the IFI is reported as -0%.
For `CN1CCN(c2ccc3nccc(CCN4CCC(NCc5ccc6c(n5)NC(=O)CO6)CC4)c3n2)CC1`, the IFI was 3.97%.
In the case of `Fc1cc(Cl)ccc1Nc1ccnc2cc(-c3ccc(CN4CCOCC4)o3)ccc12`, the IFI is reported as 10.8%.
Work on `O=C(Nc1ccc(F)c([N+](=O)[O-])c1)Nc1cc(C(F)(F)F)ccc1Cl` yielded an IFI of 4.17%.
In the case of `CCN(CC)CCCC(C)Nc1c2cc(OC)ccc2nc2cc(Cl)c([N+](=O)[O-])cc12` (stereo not given), the IFI is reported as 0.73%.
Compound `COc1cc(Cc2cnc(N)nc2N)cc(OC(C)C)c1OC` has an IFI of -0%.
`CC(C)CCNCc1ccc(OCc2ccccc2COc2ccc(CNCCC(C)C)cc2I)c(I)c1` showed an IFI of 11.2%.
`Cn1nc(-c2ccccc2F)c2cc(C(=O)Nc3cccnc3)sc21` showed an IFI of -0%.
Compound `CCN(CC)CCCN(CCCN(CC)CC)c1cc(C)nc(Nc2ccc(Cl)cc2)n1` has an IFI of 4.41%.
For `CCCc1cc(N2CCC(N3CCCC3)CC2)nc(Nc2ccc(OC)cc2)n1`, the IFI was 4.76%.
In the case of `COc1cc(C)ccc1S(=O)(=O)N1CCCCC(c2ccc(C(F)(F)F)cc2)=N1`, the IFI is reported as 0.73%.
`COc1ccc(N2CCN(CCc3ccc(NC(=O)c4ccc([N+](=O)[O-])cc4)cc3)CC2)c(OC)c1` showed an IFI of 3.54%.
For `CC(C)(C)c1ccc(NC(=O)N[C@@H]2CCN(c3ccnc4ccccc34)C2)cc1`, the IFI was 7.97%.
For `CCC(=O)OC(CCN(CC)CC)(c1ccccc1)c1ccccc1`, the IFI was 1.41%.
`Cc1ccc(F)cc1S(=O)(=O)Nc1ccc(CCN2CCC(N3CCCCC3)CC2)cc1` showed an IFI of 7.94%.
For `CCOC(=O)NC1=NC(=N)N(OCc2ccc(Cl)c(Cl)c2)C(C)(C)N1`, the IFI was 0.72%.
For `COc1ccc(-n2ncc(C(=O)N3CCC4(C3)C(=O)N(c3ccccc3)c3ccccc34)c2C)cc1` (stereo not given), the IFI was 5.41%.
In the case of `CC(=O)Oc1cc(OCc2ccccc2)c(OC(C)=O)c(OCc2ccccc2)c1`, the IFI is reported as 0.71%.
`COc1ccc2nccc([C@@H](O)CN3CCC(NC(=O)/C=C/c4cccc(C)c4)CC3)c2c1` gave an IFI of 0.75%.
In the case of `CCOc1cc(CNCCCCCCNCc2cc(OCC)c(OCC)c3ccccc23)c2ccccc2c1OCC`, the IFI is reported as 18.8%.
Work on `O=C(/C=C/c1ccc(Cl)cc1)NCCCCCN1CCCC(C(=O)Nc2ccc(F)c(Cl)c2)C1` (stereo not given) yielded an IFI of 5.77%.
`N=C(N)c1ccc(C=Cc2ccc(C(=N)N)cc2O)cc1` showed an IFI of -0%.
With `OCCCCCCNc1nc(NCc2ccccc2-c2ccc(C(F)(F)F)cc2)nc(N2CCNCC2)n1` the IFI was 3.7%.
Compound `O=C(Nc1cccc(F)c1)N(Cc1ccc(-c2ccc(CN3CCNCC3)cc2)cc1)C1CCN(Cc2ccccc2)CC1` has an IFI of 6.25%.
For `COc1cc(C2CCN(CCCCNC(=O)c3ccc(NC(=O)c4ccc(Cl)c(Cl)c4)cc3)CC2)ccc1OC(C)C`, the IFI was 8.85%.
With `c1ccc(Oc2ccc(Nc3ccnc(Nc4ccc(OCCN5CCCCC5)cc4)n3)cc2)cc1` the IFI was 5.67%.
In the case of `CN(Cc1ccc(-c2ccc(C(F)(F)F)cc2)cc1)C(=O)Cn1c(CCc2cccc(F)c2F)cc(=O)c2ccc(OCC3CCCN3C)cc21` (stereo not given), the IFI is reported as 5.15%.
Compound `Cc1cc(N[C@@H](Cc2ccccc2)C(=O)NCc2cccs2)nc(NCCc2ccc(F)cc2)n1` has an IFI of 11.6%.
Work on `O=C(Nc1ccc(C(=O)Oc2cccc3ccccc23)cc1)N[C@@H](Cc1ccc(O)cc1)C(=O)NC1CCN(Cc2ccc(O)cc2)C1` (stereo not given in full) yielded an IFI of 8.11%.
Compound `CCOC(=O)NCC(=O)Nc1cccc(-c2cccc(-c3nc4cccc(C)c4[nH]3)c2)c1` has an IFI of 2.88%.
`O=C(/C=C/c1ccc(Cl)c(Cl)c1)NCCCCCN1CCC(CCNC(=O)/C=C/c2ccc(Cl)c(Cl)c2)CC1` showed an IFI of 11.2%.
Work on `NCC1CCCN1Cc1ccc(-c2cccc(-c3nc4cc(F)ccc4[nH]3)c2)cc1` (stereo not given) yielded an IFI of 7.69%.
For `CCN(CC)CCON=Cc1cc(C)c2[nH]c3ccc(OCc4ccccc4)cc3c2c1C`, the IFI was 3.57%.
For `CN(C)Cc1cccc(-c2cnc(N)c(-c3nc4cc(S(C)(=O)=O)ccc4[nH]3)c2)c1`, the IFI was 7.41%.
With `N=C(NCc1ccccc1)Nc1nc(-c2ccc(OCCCn3ccnc3)cc2)cs1` the IFI was 2.24%.
Work on `Cc1nc(Nc2ccc(C)c(Cl)c2)c2c(C)noc2n1` yielded an IFI of 2.86%.
`O=C(Nc1cccc(C(F)(F)F)c1)NC1CCN(c2ccnc3cc(Cl)ccc23)C1` (stereo not given) gave an IFI of 7.35%.
`O=C(Cc1ccccc1)NC(CCN1CCC(NC(=O)c2ccc(Cl)cc2)CC1)c1ccc(Cl)c(Cl)c1` (stereo not given) showed an IFI of 8.33%.
With `Nc1nc(N)c2cc(NC(=O)c3ccc(Cl)c(Cl)c3)ccc2n1` the IFI was 15.9%.
In the case of `CCOC(=O)NC1=NC(C)(C)N(OCCCOc2ccc(C)cc2C)C(NC(=O)OCC)=N1`, the IFI is reported as 1.5%.
In the case of `O=C(/C=C/c1ccc(Cl)c(Cl)c1)NCCCCCN1CCCN(C(=O)Nc2cc(Cl)nc(Cl)c2)CC1`, the IFI is reported as 4.76%.
Compound `CC(C)CCN(Cc1cncn1Cc1cccc(C(F)(F)F)c1)C(=O)c1cncc(-c2ccccc2)c1` has an IFI of 5.19%.
`COc1ccc(NC(=O)[C@H](Cc2ccccc2)Nc2cc(C)nc(NCCN3CCCC3)n2)cc1` gave an IFI of 4.76%.
`COc1ccc2c(c1)Sc1ccccc1C(N1CCN(CCO)CC1)C2` (stereo not given) showed an IFI of 5.11%.
Compound `COCCNC(=O)c1ccc(OC2CCN(CC(C)=Cc3ccccc3)CC2)c(Cl)c1` has an IFI of 2.33%.
Compound `CN1CCC(NCc2cccc(-c3nn(C)c4nc(NC5CCCC5)ncc34)c2)CC1` has an IFI of 9.09%.
Compound `COc1ccc(Nc2nc(NCc3ccc(-n4ccnc4)cc3)cc(-c3ccc(OC)cc3)n2)cc1` has an IFI of 0%.
`COC(=O)C(c1ccc(NC(=O)[C@H](CC(C)C)NC(=O)OC(C)(C)C)cc1)c1ccc(NC(=O)[C@H](CC(C)C)NC(=O)OC(C)(C)C)cc1` gave an IFI of 0%.
`COCCNCc1cccc(-c2ccccc2CN(C(=O)c2ccc3c(c2)OCO3)c2ccc(OC)cc2)c1` showed an IFI of 1.45%.
`Cc1cc(Cl)c(S(=O)(=O)N2CCc3ccccc32)cc1OCC(=O)NC1CCCCC1` gave an IFI of 11.7%.
`CN1CCCC(CN2CCN(Cc3cccc(-c4cccc(-c5nc6ccccc6[nH]5)c4)c3)CC2)C1` (stereo not given) showed an IFI of 7.04%.
With `COc1cc(C)nc2ccc(NC(=O)c3cc(C(F)(F)F)cc(C(F)(F)F)c3)cc12` the IFI was 0.7%.
Work on `Fc1ccc(OC2CN(c3nccc(NCc4ccccc4Cl)n3)C2)cc1` yielded an IFI of 8%.
Compound `Cc1ccccc1C1CCN(C2CCC(NC(=O)/C=C/c3ccc(Cl)cc3)CC2)CC1` (stereo not given) has an IFI of 16.7%.
In the case of `COc1ccc(CNC(=O)NC2CCN(c3ccnc(Nc4ccc(F)cc4)n3)CC2)cc1`, the IFI is reported as 1.52%.
Work on `c1cc(CN2CCN(CCN3CCOCC3)CC2)cc(-c2cccc(-c3nc4ccccc4[nH]3)c2)c1` yielded an IFI of -0%.
In the case of `O=C(Nc1ccc2[nH]c(-c3ccc4nc(NC(=O)C5CCCCC5)sc4c3)nc2c1)C1CCCCC1`, the IFI is reported as 5%.
For `CC1(C)NC(N)=NC(=N)N1OCCCCCCOc1ccc(Cl)c2ccccc12`, the IFI was 17%.
`CC(C)Sc1nc2c(c(=O)n1CCc1ccccc1)C1(CCCC1)Cc1ccccc1-2` showed an IFI of 0%.
For `Cc1cc(N[C@@H](Cc2ccccc2)C(=O)NCCOc2ccccc2)nc(NCCOc2ccccc2)n1`, the IFI was 24.4%.
For `COc1c(C2CCN(CCCCNC(=O)c3oc(-c4ccc(Cl)cc4)cc3CO)CC2)ccc2c1CCCC2`, the IFI was 9.92%.
Compound `COc1ccc(CC2(c3ccc(F)cc3)N=C(N)N(CCCc3ccc(F)c(F)c3)C2=O)cc1` (stereo not given) has an IFI of 20%.
`O=C(C=Cc1ccc(Cl)c(Cl)c1)NC1CCN(CCc2ccccc2)CC1` showed an IFI of 1.35%.
In the case of `Cc1cc(=O)c(-c2ccc(Oc3cccc(Cl)c3)cc2)c(C)[nH]1`, the IFI is reported as 1.41%.
In the case of `Cc1cccc2nc(-c3ccc(-c4ccc(CNC(C)C)cc4)cc3)[nH]c12`, the IFI is reported as 9.52%.
For `COc1ccc2c(C)cc(NCCCN(C)C)nc2c1`, the IFI was 1.85%.
Compound `CC[C@H](C)CNC(=O)c1cncc(-c2ccc(CNCCCc3ccccc3)cc2)c1` has an IFI of 6.35%.
`Cc1cc(OCc2ccccc2)c(OCc2ccccc2)cc1C(O)CN(C)Cc1ccccc1` (stereo not given) showed an IFI of 3.55%.
Compound `COc1ccc(-c2nc(NC(=O)Cc3coc4cc(OC)ccc34)sc2C)cc1` has an IFI of 0.81%.
With `Cc1cnc(NCCc2ccc(F)cc2)nc1NCCC(=O)Nc1ccccc1` the IFI was 5%.
For `CC(CN(C)C)C(=O)Nc1ccc(-c2cccc(-c3nc4ccccc4[nH]3)c2)cc1` (stereo not given), the IFI was 2.65%.
In the case of `CC1CCCN(C(=O)c2cc(-c3ccccn3)nc3c(Cl)cccc23)C1` (stereo not given), the IFI is reported as 1.59%.
`CC(C)CSc1cc(C(=O)Nc2cc(Cl)ccc2O)ccn1` showed an IFI of 12%.
Work on `O=C(Nc1ccc(C(F)(F)F)cc1)NC1CCN(c2ccnc3cc(Cl)ccc23)CC1` yielded an IFI of 10.8%.
`CN1CCCc2ccc(NC(=O)Nc3ccc(Cl)c(Cl)c3)cc2C1` showed an IFI of 3.45%.
For `Cc1cccc2nc(-c3ccc(-c4cccc(CN5CCC(CO)CC5)c4)s3)[nH]c12`, the IFI was 1.98%.
`COc1ccc(C=NN=c2cc(C)[nH]c3ccc(C)cc23)c2ccccc12` showed an IFI of 7.09%.
In the case of `COc1ccc2nc(-c3cc(-c4ccc(NC(C)=O)cc4)cnc3N)[nH]c2c1`, the IFI is reported as 10.7%.
`O=C(Nc1ccc(OC2CCN(Cc3ccc(F)cc3)C2)c(Cl)c1)c1ccsc1` (stereo not given) gave an IFI of 4.55%.
With `CC(C)NCc1ccc(-c2cccc(NC(=O)c3ccc(F)cc3)c2)cc1` the IFI was -0%.
Work on `O=C(NCCNc1nc(NCCNC(=O)Nc2ccccc2)c2ccc(=O)n(-c3c(F)cccc3F)c2n1)Nc1ccccc1` yielded an IFI of 0%.
Compound `CN1CCN(c2ccnc3ccc(NC(=O)Nc4ccc(-c5ccncc5)c(C(F)(F)F)c4)cc23)CC1` has an IFI of 0.77%.
`Fc1cc(Cl)ccc1Nc1ccnc2cc(-c3ccc(CN4CCNCC4)o3)ccc12` showed an IFI of 6.67%.
`Cc1ccc(-c2cc(C(=O)Nc3ccc(S(=O)(=O)N4CCOCC4)cc3)[nH]n2)c(O)c1C` gave an IFI of 6.8%.
`COc1ccc(-c2cnc3[nH]cc(-c4ccncc4)c3c2)cc1OC` gave an IFI of 13.5%.
`Cc1ccc(NC(=O)NC2CCN(c3ccnc4cc(Cl)ccc34)CC2)cc1` showed an IFI of 1.56%.
Compound `COc1ccc(NC(=O)C2c3ccccc3C(=O)N(C3CCCC3)C2c2cccs2)cc1` (stereo not given) has an IFI of 2.38%.
